Laboratory results: the supplement of paper PMC8728848
Some of the results follow.

Columns and labels:
Test in all cases: glycan array binding signal (z-score within array); higher = stronger binding
Details in all cases: glycan notation: IUPAC condensed, linker removed
[1] = target: Neu5Ac(a2-6)Gal(b1-3)GlcNAc(b1-3)[Gal(b1-4)GlcNAc(b1-6)]Gal(b1-4)Glc
Method in brief: (§1)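 Columns mapping to the same glycan were averaged after glycan names were converted to IUPAC-condensed notation. The data come from 3228 arrays in the Consortium for Functional Glycomics database, limited to those with an available protein sequence. Binding is reported as a within-array Z-score averaged across arrays of one protein sequence and across linkers.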

[2] = target: Neu5Ac(a2-6)Gal(b1-4)Glc
Method in brief: as §1

[3] = target: Neu5Ac(a2-6)Gal(b1-4)GlcNAc
Method in brief: as §1

[4] = target: Neu5Ac(a2-6)Gal(b1-4)GlcNAc(b1-2)Man
Method in brief: as §1

[5] = target: Neu5Ac(a2-6)Gal(b1-4)GlcNAc(b1-2)Man(a1-3)Man(b1-4)GlcNAc(b1-4)GlcNAc
Method in brief: as §1

[6] = target: Neu5Ac(a2-6)Gal(b1-4)GlcNAc(b1-2)Man(a1-3)[Gal(b1-4)GlcNAc(b1-2)Man(a1-6)]Man(b1-4)GlcNAc(b1-4)GlcNAc
Method in brief: as §1

[7] = target: Neu5Ac(a2-6)Gal(b1-4)GlcNAc(b1-2)Man(a1-3)[GlcNAc(b1-2)Man(a1-6)]Man(b1-4)GlcNAc(b1-4)GlcNAc
Method in brief: as §1

[8] = target: Neu5Ac(a2-6)Gal(b1-4)GlcNAc(b1-2)Man(a1-3)[GlcNAc(b1-4)][Neu5Ac(a2-6)Gal(b1-4)GlcNAc(b1-2)Man(a1-6)]Man(b1-4)GlcNAc(b1-4)GlcNAc
Method in brief: as §1

[9] = target: Neu5Ac(a2-6)Gal(b1-4)GlcNAc(b1-2)Man(a1-3)[Man(a1-6)]Man(b1-4)GlcNAc(b1-4)GlcNAc
Method in brief: as §1

[10] = target: Neu5Ac(a2-6)Gal(b1-4)GlcNAc(b1-2)Man(a1-3)[Neu5Ac(a2-3)Gal(b1-4)GlcNAc(b1-2)Man(a1-6)]Man(b1-4)GlcNAc(b1-4)GlcNAc
Method in brief: as §1

[11] = target: Neu5Ac(a2-6)Gal(b1-4)GlcNAc(b1-2)Man(a1-3)[Neu5Ac(a2-6)Gal(b1-4)GlcNAc(b1-2)Man(a1-6)]Man(b1-4)GlcNAc(b1-4)GlcNAc
Method in brief: as §1

[12] = target: Neu5Ac(a2-6)Gal(b1-4)GlcNAc(b1-2)Man(a1-3)[Neu5Ac(a2-6)Gal(b1-4)GlcNAc(b1-2)Man(a1-6)]Man(b1-4)GlcNAc(b1-4)[Fuc(a1-6)]GlcNAc
Method in brief: as §1

[13] = target: Neu5Ac(a2-6)Gal(b1-4)GlcNAc(b1-2)Man(a1-6)Man(b1-4)GlcNAc(b1-4)GlcNAc
Method in brief: as §1

[14] = target: Neu5Ac(a2-6)Gal(b1-4)GlcNAc(b1-2)Man(a1-6)[Gal(b1-4)GlcNAc(b1-2)Man(a1-3)]Man(b1-4)GlcNAc(b1-4)GlcNAc
Method in brief: as §1

[15] = target: Neu5Ac(a2-6)Gal(b1-4)GlcNAc(b1-2)Man(a1-6)[GlcNAc(b1-2)Man(a1-3)]Man(b1-4)GlcNAc(b1-4)GlcNAc
Method in brief: as §1

[16] = target: Neu5Ac(a2-6)Gal(b1-4)GlcNAc(b1-2)Man(a1-6)[Man(a1-3)]Man(b1-4)GlcNAc(b1-4)GlcNAc
Method in brief: as §1

[17] = target: Neu5Ac(a2-6)Gal(b1-4)GlcNAc(b1-2)[Neu5Ac(a2-6)Gal(b1-4)GlcNAc(b1-4)]Man(a1-3)[GlcNAc(b1-4)][Neu5Ac(a2-6)Gal(b1-4)GlcNAc(b1-2)[Neu5Ac(a2-6)Gal(b1-4)GlcNAc(b1-6)]Man(a1-6)]Man(b1-4)GlcNAc(b1-4)GlcNAc
Method in brief: as §1

[18] = target: Neu5Ac(a2-6)Gal(b1-4)GlcNAc(b1-2)[Neu5Ac(a2-6)Gal(b1-4)GlcNAc(b1-4)]Man(a1-3)[GlcNAc(b1-4)][Neu5Ac(a2-6)Gal(b1-4)GlcNAc(b1-4)Man(a1-6)]Man(b1-4)GlcNAc(b1-4)GlcNAc
Method in brief: as §1

[19] = target: Neu5Ac(a2-6)Gal(b1-4)GlcNAc(b1-2)[Neu5Ac(a2-6)Gal(b1-4)GlcNAc(b1-6)]Man(a1-6)[Neu5Ac(a2-6)Gal(b1-4)GlcNAc(b1-2)Man(a1-3)][GlcNAc(b1-4)]Man(b1-4)GlcNAc(b1-4)GlcNAc
Method in brief: as §1

[20] = target: Neu5Ac(a2-6)Gal(b1-4)GlcNAc(b1-3)Gal(b1-3)GlcNAc
Method in brief: as §1

[21] = target: Neu5Ac(a2-6)Gal(b1-4)GlcNAc(b1-3)Gal(b1-4)GlcNAc
Method in brief: as §1

[22] = target: Neu5Ac(a2-6)Gal(b1-4)GlcNAc(b1-3)Gal(b1-4)GlcNAc(b1-2)Man(a1-3)[Neu5Ac(a2-6)Gal(b1-4)GlcNAc(b1-3)Gal(b1-4)GlcNAc(b1-2)Man(a1-6)]GalNAc
Method in brief: as §1

[23] = target: Neu5Ac(a2-6)Gal(b1-4)GlcNAc(b1-3)Gal(b1-4)GlcNAc(b1-3)Gal(b1-4)GlcNAc
Method in brief: as §1

B1: PX9961U-pdi-543-24-543 (Parabacteroides distasonis) (protein)
chain: EEPVGEFLPGQVESEENIEGIVTGAYAVLDGYYASDAINSGCSNWQFGDVVSDDAYKGGGGTGDQNQIHLMEIFNANPTGIDFEARWAALYEGIKRCNQAIRLLNGSEVKNKEQRLAEMRFLRGHYYFNLKIIYNQIPWIDETLVDPNEYNKKSNIEFSSDQLWEKILEEFSAAYKVLPESQADYGRPTKMAARAYMAKVYLYQSKWKECLEACDEVIQSGKYELFPDFRNVFLPENDNCSEIIFAIQLSINDGSPNNENGSYGDRLLPPGGPYPVYGFLRPTQNLVNAYKTDVKGLPYNDGKDVSENDYVDVRLDHTLARPNIPFMDVQLYDWTPREASVYGPYSPKKRLVSLNSTYYSPIWPYVNALNFYVIRYADLLLWRAEAAIETGDLETGRKYINMIRERAKNTQHVKTMDQSQDAANYKVGVYDEPFKSKNEAVQALRMERRLEMAHEGIRFFDLVRWGVADEVINAYIAKEKVFRSHLQNAHFVKGKHEYFPIPQSMIDICGTEVMKQNPGY
- glycan array binding signal (z-score) [1]: -0.282
- glycan array binding signal (z-score) [2]: -0.433
- glycan array binding signal (z-score) [3]: -0.404
- glycan array binding signal (z-score) [4]: -0.368
- glycan array binding signal (z-score) [5]: -0.322
- glycan array binding signal (z-score) [6]: 0.343
- glycan array binding signal (z-score) [7]: 0.099
- glycan array binding signal (z-score) [8]: -0.368
- glycan array binding signal (z-score) [9]: -0.14
- glycan array binding signal (z-score) [10]: -0.337
- glycan array binding signal (z-score) [11]: -0.347
- glycan array binding signal (z-score) [12]: 0.4
- glycan array binding signal (z-score) [13]: -0.116
- glycan array binding signal (z-score) [14]: -0.374
- glycan array binding signal (z-score) [15]: -0.448
- glycan array binding signal (z-score) [16]: -0.372
- glycan array binding signal (z-score) [17]: -0.416
- glycan array binding signal (z-score) [18]: 1.18
- glycan array binding signal (z-score) [19]: -0.387
- glycan array binding signal (z-score) [20]: -0.324
- glycan array binding signal (z-score) [21]: -0.364
- glycan array binding signal (z-score) [22]: 0.202
- glycan array binding signal (z-score) [23]: -0.041
